According to the RNAGym collection of RNA variant scans (doi:10.7554/elife.90254):
Read counts are not given, so values of variants with three or more changes are uncertain.

B1: LINE1-full (parent)
chain: UACGUAGGUGGUUUUCCCCUGAUAGUGCUAAGGGGGCCUGGAAGUUUGGACUGGGCAGAGCUCAACACAGCGUGGCAAAGUGGCUGUGGCUAGACUGCCUCUCUGGAUUCCUCGUCACUCAGCAGGGCAUCUCUGAGAGAAAUGCC

Variants of: B1
Assay: self-cleavage, relative activity (ratio to wild type); higher = more cleavage; in vitro, sequencing; the parent is a self-cleaving ribozyme
U20C G35A U46C A121U gave a self-cleavage of 1.07.
For A77U U119A A140G, the self-cleavage was 1.15.
Variant U45C U62C A77G C101A has a self-cleavage of 0.02.
For U46G G88A U102A, the self-cleavage was 0.05.
For U13C A65U U104C A129U G137A, the self-cleavage was 0.39.
Work on A121U U130C A138G yielded a self-cleavage of 2.23.
Variant U1A U39C A77U has a self-cleavage of 0.37.
In the case of A6G U14C A78G A121C U130A, the self-cleavage is reported as 0.59.
Work on G33A U52C U62A A94G yielded a self-cleavage of 0.06.
U26A U96A U143C gave a self-cleavage of 0.11.
In the case of U15C A43G G97A U115A A141G, the self-cleavage is reported as 0.07.
In the case of G8A A43G A121G, the self-cleavage is reported as 1.84.
With U91C A136G A138U the self-cleavage was 1.07.
For A42G A69G U87A C120U U134C, the self-cleavage was 0.13.
Variant U9A A77G U85C has a self-cleavage of 0.82.
Work on A24G U45C A138G yielded a self-cleavage of 0.84.
G7A A31G A117G gave a self-cleavage of 0.92.
U100C U109G A140G gave a self-cleavage of 1.15.
With U9A A78G U85C A124G the self-cleavage was 0.56.
A77G U104A A136G showed a self-cleavage of 2.52.
For C76U A94G U112C, the self-cleavage was 0.19.
Variant G33A A50G U52A A94G has a self-cleavage of 0.
With A65G A92G A141G the self-cleavage was 0.12.
In the case of A22U U29C A79U, the self-cleavage is reported as 1.37.
U23C A57U G58A U62C U134C gave a self-cleavage of 0.04.
G10A U119C U134A showed a self-cleavage of 1.53.
U45A A67G A129U showed a self-cleavage of 0.89.
Variant G8A A65G U85C has a self-cleavage of 0.16.
With U13A U15C G49A A65U U81A the self-cleavage was 0.17.
U96A A121G A142G gave a self-cleavage of 0.09.
U26C A67G A140U gave a self-cleavage of 0.15.
In the case of A77G U91C A107G, the self-cleavage is reported as 0.
Variant U12G A22U A57G A121U has a self-cleavage of 0.48.
Work on U14C U29C A31U A65U A77G A117U U134C A136U yielded a self-cleavage of 0.27.
Variant U13C A57G A65G G114A has a self-cleavage of 0.14.
U85C G86A U96C U119A A141G gave a self-cleavage of 0.08.
In the case of U13A U100C U112A A117G U132C, the self-cleavage is reported as 2.63.
With U1C U81G U115C C131U A136G the self-cleavage was 0.75.
For U26C U62C U100C, the self-cleavage was 0.88.
Variant U15C A64U U85A U87C has a self-cleavage of 0.34.
Variant G36A C37U U39A A59G A136G has a self-cleavage of 0.07.
Work on A2G U20C G35A yielded a self-cleavage of 0.69.
In the case of U12C U14C G54A, the self-cleavage is reported as 0.74.
In the case of G7U A65G A138G, the self-cleavage is reported as 0.18.
Variant U73C U102C U134G has a self-cleavage of 2.3.
U12G U39C C56A showed a self-cleavage of 0.17.
U13C U100C U119A U143C showed a self-cleavage of 1.88.
For A2G U91C U100C, the self-cleavage was 2.3.
Work on U1C G36A A117U yielded a self-cleavage of 0.51.
Variant A6C U13C A78G U119A has a self-cleavage of 1.68.
In the case of A67C A78G A136G, the self-cleavage is reported as 0.14.
For A77U A78G U104A U108C C116A A129G A140G, the self-cleavage was 0.45.
U5C C19U G48A A57G U115A G127A gave a self-cleavage of 0.69.
With A43G U52C G53U the self-cleavage was 1.2.
For G33U U45C A65G, the self-cleavage was 0.09.
For G44A U108C U109C U134C, the self-cleavage was 1.84.
Work on G21A U52C G127C yielded a self-cleavage of 0.88.
In the case of A22C U23A U115C A129G, the self-cleavage is reported as 2.51.
U104C G105U U115C showed a self-cleavage of 2.15.
With U39C G54U U85C the self-cleavage was 0.13.
In the case of G21A A67C A92U U108C C120G, the self-cleavage is reported as 0.
Variant U15A U62C G89C U96A has a self-cleavage of 0.03.
With U12C A69U U73A the self-cleavage was 0.07.
In the case of A2G U9C A50U A69U U73A, the self-cleavage is reported as 0.21.
U14A U62C A92G A141G gave a self-cleavage of 0.19.
Work on C90G U102A G127C yielded a self-cleavage of 0.05.
Variant U109A G114A A124G has a self-cleavage of 1.25.
Work on A107C U108G A124U yielded a self-cleavage of 0.48.
Variant C71U U102A A141U has a self-cleavage of 0.15.
Work on U23C U62C G86U yielded a self-cleavage of 0.
For U26A A42G U119A, the self-cleavage was 1.1.
Variant C19U U26A U39C has a self-cleavage of 0.9.
G11C U13C G32A gave a self-cleavage of 0.94.
Variant G49A U91C A107U A138G has a self-cleavage of 0.34.
With U26C U45C A79G G127C the self-cleavage was 1.15.
Variant U9A U73C U85C has a self-cleavage of 0.35.
With U15G U47A G74A A124G the self-cleavage was 0.54.
U1C U91C A129C showed a self-cleavage of 1.18.
For U9C C111U A117G, the self-cleavage was 0.95.
For U46C C76U U96C, the self-cleavage was 0.3.
In the case of A31C A77U U81C, the self-cleavage is reported as 1.19.
With U46C U62C U104A the self-cleavage was 0.09.
With A6G U39A U62C A138G the self-cleavage was 0.1.
With A31U U39C A42U A50G A79G the self-cleavage was 0.3.
Work on A2G U15C A42U U112C yielded a self-cleavage of 1.27.
U14C U52C A129U showed a self-cleavage of 1.47.
With A42U A78U A142G C146A the self-cleavage was 1.51.
Work on A57G A77C A79C A138U yielded a self-cleavage of 0.97.
For A57G C61A U73C A138U, the self-cleavage was 0.05.
For A42G G72A A136G, the self-cleavage was 2.11.
U13C A64U A92U U108C gave a self-cleavage of 0.59.
Variant U1C A42G G58U U81C A117G A138G has a self-cleavage of 0.
In the case of G36A U46C C146U, the self-cleavage is reported as 1.24.
A77U U104C A107G showed a self-cleavage of 1.79.
For A2G G41A U45G U91C A142U, the self-cleavage was 0.32.
U52C U81C C103U gave a self-cleavage of 1.76.
Variant U13C A69G U81A A140G has a self-cleavage of 0.6.
In the case of A2G C66A C98U U119C, the self-cleavage is reported as 0.
A78G C116U A140G showed a self-cleavage of 0.89.
In the case of U15C U39C A117U, the self-cleavage is reported as 1.55.
Variant U13C U85A C145U has a self-cleavage of 0.13.
A57G A59U A140G showed a self-cleavage of 0.52.
With U115A A138G U143C the self-cleavage was 0.97.
For G35U U96A A138G, the self-cleavage was 0.05.
With A94G U100C U108C the self-cleavage was 0.37.
With G58A U81A U85A A141G the self-cleavage was 0.01.
U12G U20A G88C showed a self-cleavage of 0.17.
A22U C99A U100C gave a self-cleavage of 0.55.
For U13C A129G A141G, the self-cleavage was 1.15.
With A57U A65G A77U U81G the self-cleavage was 0.06.
C37U A136U U143C showed a self-cleavage of 0.29.
G32U C71U U85A showed a self-cleavage of 0.05.
For A79U U130C U134C, the self-cleavage was 2.76.
Work on U1C U5A G35U U39C U119A yielded a self-cleavage of 0.36.
For U23C A77U C90A C116A, the self-cleavage was 0.
Variant U29G A42G U46C has a self-cleavage of 1.31.
Variant G58A A67G U132A has a self-cleavage of 0.07.
With A42G G53C A142G the self-cleavage was 0.89.
For A31U A78G C95U, the self-cleavage was 1.15.
Work on C17U C19U C37A A50G U62A yielded a self-cleavage of 0.17.
Variant U12G U13C G35A A65U A79G A142G has a self-cleavage of 0.16.
With A22U A59G A142G the self-cleavage was 0.26.
U14G C37U A59U showed a self-cleavage of 1.31.
For U5C U62G A77G, the self-cleavage was 0.21.
In the case of U47A A79G C133U U143A, the self-cleavage is reported as 1.1.
Variant U14C C38U A140G has a self-cleavage of 1.09.
With U46C A107U U112A the self-cleavage was 1.84.
C37U U100C U108C A117G A138U showed a self-cleavage of 0.54.
A42G U85A U104C gave a self-cleavage of 0.48.
Work on G4A A6C U29A U39C A141G yielded a self-cleavage of 0.93.
Variant U15A A31G U134C has a self-cleavage of 0.79.
For U14G A67U A129U, the self-cleavage was 0.25.
For U13C U26G A57G U96A A129G, the self-cleavage was 0.
U20C A50U U115C gave a self-cleavage of 0.47.
With A42G C116U U134A A141G the self-cleavage was 1.17.
Variant U15C A94G C98U U112C has a self-cleavage of 0.11.
In the case of U13C U47A A142G, the self-cleavage is reported as 0.95.
U45C A67G U130C gave a self-cleavage of 0.
With A22G A64U A79U the self-cleavage was 0.79.
For G10A A107G U134C A136G, the self-cleavage was 1.67.
With U12A U13G U29C the self-cleavage was 0.22.
For U12C U14C U134C, the self-cleavage was 2.83.
For U5C C28U U47C, the self-cleavage was 0.49.
Variant U39A C71U A78G U143C has a self-cleavage of 0.5.
Variant U13A U47C A94G has a self-cleavage of 0.11.
U13C A69U A77U gave a self-cleavage of 0.23.
With A117G C118A A136G A142C the self-cleavage was 1.38.
Work on A64G U73C U143C yielded a self-cleavage of 0.9.
U1C A69C G144A showed a self-cleavage of 0.08.
Work on G35C A57U A69G A94U C113U A140G yielded a self-cleavage of 0.
Variant G35A G36C U112A has a self-cleavage of 0.89.
In the case of U14C A31G A78G A92G, the self-cleavage is reported as 0.98.
Variant G54A U85A U132C has a self-cleavage of 0.05.
For U13C G89A A121G, the self-cleavage was 0.08.
With A6G U100C C120U A140G A142C the self-cleavage was 1.13.
For U15A A77G A138G, the self-cleavage was 1.92.
For G7A U15C A67U, the self-cleavage was 0.18.
Variant U29C A30G A67U G122A has a self-cleavage of 0.1.
Variant C19U U39A G97A has a self-cleavage of 0.2.
Variant U15C A77G U134A has a self-cleavage of 2.42.
For A2G U13G U47A G89A, the self-cleavage was 0.15.
For U14C U15C U39C U46A A64U G70A, the self-cleavage was 0.07.
With C3U A59U A69G A78U the self-cleavage was 0.37.
Work on U14C U73C A79G yielded a self-cleavage of 1.84.
For U1C U13G A142G, the self-cleavage was 1.07.
Variant U5C A6G A129G has a self-cleavage of 0.82.
Work on U45G U100A C146U yielded a self-cleavage of 0.85.
